Assay results: patent US20250064779A1, “COMPOSITIONS AND METHODS FOR THE TREATMENT OF DEPRESSION” (Janssen Pharmaceuticals, Inc., priority 2022, published 2025)

What was measured:
Type in all cases: in vivo, human
[1] = tested on: subjects with MDD who have had an inadequate response to SSRI/SNRI treatment; experiment: CGI-S, Example 1; settings: aticaprant 10 mg; 59 subjects analyzed
Excerpt: CGI-S is a scale that rates the severity of the subject's illness at the time of assessment, relative to the clinician's past experience with subjects who have the same diagnosis and improvement with treatment. CGI-S provides an overall clinician-determined summary measure of severity of subject's illness that considers all available information, including knowledge of subject's history, psychosocial circumstances, symptoms, behavior, and impact of symptoms on subject's ability to function. CGI-S evaluates severity of psychopathology on scale of 0 to 7. Subject is assessed on severity of mental illness at time of rating according to: 0=not assessed; 1=normal (not at all ill); 2=borderline mentally ill; 3=mildly ill; 4=moderately ill; 5=markedly ill; 6=severely ill; 7=among most extremely ill patients. […]

[2] = tested on: subjects with MDD who have had an inadequate response to SSRI/SNRI treatment; experiment: SMDDS total score, Example 1; settings: Treatment Week 6; aticaprant 10 mg; 59 subjects analyzed
Excerpt: SMDDS is a subjective rating of the patient. The SMDDS is a 16-item PRO measure. Each item is rated by the subject according to a 5-point Likert scale. Subjects respond to each question using a rating scale between 0 (“Not at all” or “Never”) to 4 (“Extremely” or “Always”). The total score ranges from 0 to 60. The SMDDS uses a 7-day recall period and verbal rating scales. Higher score indicates more severe depressive symptomatology.
• (i) Depression: Montgomery-Åsberg Depression Rating Scale (MADRS), Clinical Global Impression-Severity (CGI-S), Symptoms of Major Depressive Disorder Scale (SMDDS), and Self-assessment of treatment experience (SATE) • (ii) Anhedonia: Snaith-Hamilton Pleasure Scale (SHAPS) • (iii) Anxiety: Structured Interview Guide for the Hamilton Anxiety scale (SIGH-A) and HAM-A6 • (iv) Effects on Cognition: The Cognitive and Physical Functioning Questionnaire (CPFQ) • (v) Safety Assessments: Standard safety assessments including physical and neurological examination, vital signs, 12-lead ECG, clinical chemistry, hematology, and urinalysis was performed. […]

[3] = tested on: subjects with MDD who have had an inadequate response to SSRI/SNRI treatment; experiment: SATE (self-assessment of treatment experience), Example 1; settings: Treatment Week 6, aticaprant 10 mg
Excerpt: SATE is a one to three questionnaire administered when the subject is unable to complete other evaluations, i.e., away from the clinical setting such as at home. SATE is useful to evaluate improvement or deterioration of depressive symptoms of the subjects over a short period of time. […] See, Table C.
• (i) Depression: Montgomery-Åsberg Depression Rating Scale (MADRS), Clinical Global Impression-Severity (CGI-S), Symptoms of Major Depressive Disorder Scale (SMDDS), and Self-assessment of treatment experience (SATE) • (ii) Anhedonia: Snaith-Hamilton Pleasure Scale (SHAPS) • (iii) Anxiety: Structured Interview Guide for the Hamilton Anxiety scale (SIGH-A) and HAM-A6 • (iv) Effects on Cognition: The Cognitive and Physical Functioning Questionnaire (CPFQ) • (v) Safety Assessments: Standard safety assessments including physical and neurological examination, vital signs, 12-lead ECG, clinical chemistry, hematology, and urinalysis was performed. Based on observations of GI complaints in previous studies, a panel including PGI, PGII, G17 and Hp IgG was added to the clinical laboratory test panel to test for stomach mucosa status. • (vi) Suicidal ideation: C-SSRS • (vii) Exploratory: CPFQ • (viii) Central sedating effects: Karolinska Sleepiness Scale • (ix) Sexual dysfunction: ASEX

[4] = tested on: subjects with MDD who have had an inadequate response to SSRI/SNRI treatment; experiment: HAM-A6 total score (anxiety), Example 1; settings: Treatment Week 6
Excerpt: (§1) The secondary objectives are: • i. To evaluate the efficacy of aticaprant compared to placebo when administered as adjunctive treatment in subjects with MDD partially responsive to SSRI/SNRI treatment in terms of reduction of symptoms of depression, as assessed by the change from baseline on the MADRS in both responders and non-responders during the placebo lead-in period. • ii. To investigate the overall safety and tolerability of treatment with adjunctive aticaprant in subjects with MDD when used in combination with a SSRI or SNRI. • iii. To investigate the effect of aticaprant versus placebo on depression related anhedonia as assessed by the SHAPS. • iv. To investigate the effect of aticaprant on symptoms of depression using the Clinical Global Impression-Severity (CGI-S), the patient reported Symptoms of Major Depressive Disorder Scale (SMDDS) and the self-assessment of treatment experience (SATE). • v. To investigate the effect of aticaprant on symptoms of anxiety using the HAM-A and on core symptoms of anxiety using the HAM-A6 subscale. • vi. To assess the plasma PK of aticaprant in subjects with MDD and explore its relationship with efficacy and safety parameters. […]

[5] = tested on: subjects with MDD who have had an inadequate response to SSRI/SNRI treatment; experiment: SIGH-A score (anxiety), Example 1; settings: Treatment Week 6; aticaprant 10 mg; 59 subjects analyzed
Excerpt: as §1

[6] = tested on: subjects with MDD who have had an inadequate response to SSRI/SNRI treatment; experiment: ASEX sexual functioning, Example 1
Excerpt: As used herein, the term “decrease in sexual functioning” refers to reducing or lessening of one or more components of the human sex drive, i.e., sexual functioning. In some embodiments, the sexual functioning comprises one or more of sexual drive, sexual arousal, vaginal lubrication, erection, orgasm achievement, or orgasm satisfaction. In other embodiments, the sexual functioning comprises sexual drive. In further embodiments, the sexual functioning comprises vaginal lubrication satisfaction. In further embodiments, the sexual functioning comprises orgasm achievement. In yet other embodiments, the sexual functioning comprises orgasm satisfaction. Desirably, the patient's sexual functioning is assessed at the time of initial administration of the aticaprant. Thus, the patient's sexual functioning while taking aticaprant can be compared to the patient's sexual functioning before administration of aticaprant. Sexual functioning may be assessed by using standard scales and techniques such as the Arizona Sexual Experience Scale (ASEX). The ASEX is used to investigate whether aticaprant has a further positive or negative effect on sexual function. The ASEX is 5 item rating scale administered to patients that quantifies sexual drive, sexual arousal, vaginal lubrication or penile erection, ability to reach orgasm and satisfaction. Scores range from 5 to 30, and two different versions of the scale are available (males and females).
Patients had their sexual functioning measured using a standard, well accepted rating scale: ASEX. See, Table 32.

Cc1cc(C)cc(C2CCCN2Cc2ccc(Oc3ccc(C(N)=O)cc3F)cc2)c1 (stereo not shown) [aticaprant, 3-fluoro-4-4-2-(3,5-dimethylphenyl)pyrrolidin-1-yl-methylphenoxybenzamide]
Change from Treatment Baseline in CGI-S Total Score, Arithmetic Mean (SD) [1]: −0.92 ± 1.039 Scores on a scale | Change from Treatment Baseline in SMDDS Total Score, Arithmetic Mean (SD) [2]: −8.03 ± 9.957 Scores on a scale | SATE: Depression Worsened (Much worse) ([3]; n = 0): 0 subjects | SATE: Depression Worsened (Slightly worse) ([3]; n = 0): 0 subjects | SATE: Depression Worsened (Very much worse) ([3]; n = 0): 0 subjects | SATE: Depression Much improved ([3]; n = 21): 6 subjects | SATE: Depression Slightly improved ([3]; n = 21): 15 subjects | SATE: Depression Very Much Improved ([3]; n = 21): 0 subjects | SATE: Overall Depression (Got worse) ([3]; n = 30): 0 subjects | SATE: Overall Depression (Improved) ([3]; n = 30): 21 subjects | SATE: Overall Depression (Not changed) ([3]; n = 30): 9 subjects | improvement in HAMA6 score vs. placebo [4]: greater improvement | Change from Treatment Baseline in HAM-A6 Total Score, Arithmetic Mean (SD) ([4]; aticaprant 10 mg, 59 subjects analyzed): −2.73 ± 2.651 scores on a scale | Change from Treatment Baseline in SIGH-A Score, Arithmetic Mean (SD) [5]: −5.85 ± 5.369 scores on a scale | ASEX score: Absolute Change ([6]; baseline to endpoint, n = 85): −1.47 | ASEX score: Relative % Change ([6]; baseline to endpoint, n = 85): −6.91% | ASEX score: Endpoint ([6]; n = 85, lower score indicates improvement): 19.79 | sexual functioning (ASEX) ([6]; patients receiving aticaprant): notable improvements | ASEX total score: mean change from treatment baseline (SD) ([6]; to week 6, lower score indicates improvement): −1.5 (4.02) points
